Among the data in a collection of fitness landscapes (doi:10.1126/science.1257360) are enrichment ratio values, retold here.

This is one part of the list.

To fix the notation:
B1: PhoQ; a variant is named by its letters at X, in order, P23837 (parent)
chain: MKKLLRLFFPLSLRVRFLLATAAVVLVLSLAYGMVALIGYSVSFDKTTFRLLRGESNLFYTLAKWENNKLHVELPENIDKQSPTMTLIYDENGQLLWAQRDVPWLMKMIQPDWLKSNGFHEIEADVNDTSLLLSGDHSIQQQLQEVREDDDDAEMTHSVAVNVYPATSRMPKLTIVVVDTIPVELKSSYMVWSWFIYVLSANLLLVIPLLWVAAWWSLRPIEALAKEVRELEEHNRELLNPATTRELTSLVRNLNRLLKSERERYDKYRTTLTDLTHSLKTPLXXLQXXLRSLRSEKMSVSDAEPVMLEQISRISQQIGYYLHRASMRGGTLLSRELHPVAPLLDNLTSALNKVYQRKGVNISLDISPEISFVGEQNDFVEVMGNVLDNACKYCLEFVEISARQTDEHLYIVVEDDGPGIPLSKREVIFDRGQRVDTLRPGQGVGLAVAREITEQYEGKIVAGESMLGGARMEVIFGRQHSAPKDE

In this assay the parent is B1. The assay is described as follows: enrichment ratio after two sorts for PhoP signalling (ratio (wild type AVST 3.29)); higher = more functional. The note with it: with PhoP (E. coli).
With VQVK, the enrichment ratio is ≤ 0.25.
The same measure for NITL: ≤ 0.25.
The same measure for TFLF: 0.343; for HGAA: ≤ 0.25.
Regarding QTWY, the enrichment ratio is 8.93.
In the case of THTD, the enrichment ratio was ≤ 0.25.
The same measure for QGCM: 1.34.
The same measure for HDIA: ≤ 0.25.
RPHN: the enrichment ratio was ≤ 0.25.
Regarding YHWH, the enrichment ratio is ≤ 0.25.
In the case of YKDA, the enrichment ratio is ≤ 0.25.
The same measure for QPWI: ≤ 0.25; for GLFG: ≤ 0.25.
For LPWK, the enrichment ratio was ≤ 0.25.
The same measure for HQRT: ≤ 0.25; for NPYS: ≤ 0.25; for FMHM: ≤ 0.25.
Regarding LPLH, the enrichment ratio was ≤ 0.25.
As for RIEE, the enrichment ratio is ≤ 0.25.
Take ADIY: the enrichment ratio was ≤ 0.25.
For LRSD, the enrichment ratio is ≤ 0.25.
For the variant HEDE, the enrichment ratio was ≤ 0.25.
The value for LTCY was ≤ 0.25; that for SKVF was 4.2.
For the variant WSLC, the enrichment ratio is ≤ 0.25.
On to MCTH, for which the enrichment ratio is ≤ 0.25.
As for LIKH, the enrichment ratio was ≤ 0.25.
The same measure for RRTD: ≤ 0.25; for TANP: ≤ 0.25.
Turning to PDPF, the enrichment ratio is ≤ 0.25.
On to LYQI, for which the enrichment ratio was ≤ 0.25.
The value for LVWS was ≤ 0.25; that for FFRM was ≤ 0.25; that for HDHQ was ≤ 0.25.
The value for ETGV was ≤ 0.25.
The value for PNCD was ≤ 0.25; that for PRGM was ≤ 0.25; that for VLDH was ≤ 0.25.
As for NTTK, the enrichment ratio was ≤ 0.25.
In the case of TANS, the enrichment ratio is 11.9.
For YEMS, the enrichment ratio is 14.7.
The value for FVRG was ≤ 0.25; that for AAHL was 0.456; that for NEHI was ≤ 0.25.
The same measure for AHHN: ≤ 0.25; for IQSM: ≤ 0.25; for FMIW: ≤ 0.25.
Turning to WGNF, the enrichment ratio is ≤ 0.25.
The same measure for RQEY: ≤ 0.25.
The value for FLYL was ≤ 0.25.
The same measure for FPHQ: ≤ 0.25; for VTEM: ≤ 0.25.
On to LPCQ, for which the enrichment ratio was ≤ 0.25.
In the case of KHTQ, the enrichment ratio was ≤ 0.25.
The value for NKAT was ≤ 0.25; that for MARW was ≤ 0.25.
The value for KRGS was ≤ 0.25; that for IIHC was ≤ 0.25.
The value for VYVN was 0.45; that for KFCN was ≤ 0.25.
Turning to VKWM, the enrichment ratio is ≤ 0.25.
The same measure for YRLE: ≤ 0.25; for GEMV: 5.64.
As to NPWF, the enrichment ratio is ≤ 0.25.
Consider LCVA, for which the enrichment ratio was ≤ 0.25.
The value for WRRD was ≤ 0.25; that for SHTH was 0.595.
As for KVER, the enrichment ratio was ≤ 0.25.
On to LMAS, for which the enrichment ratio is ≤ 0.25.
For the variant VARK, the enrichment ratio came to 0.646.
The value for NWKV was ≤ 0.25; that for VTTK was ≤ 0.25; that for KLEL was ≤ 0.25.
With RKCW, the enrichment ratio is ≤ 0.25.
As for LMDM, the enrichment ratio was ≤ 0.25.
For the variant MLLD, the enrichment ratio was ≤ 0.25.
The value for WYAS was ≤ 0.25.
In the case of DTLL, the enrichment ratio is ≤ 0.25.
YHPA: the enrichment ratio was ≤ 0.25.
The same measure for HQSI: ≤ 0.25; for DGVC: ≤ 0.25.
Regarding CSFC, the enrichment ratio is ≤ 0.25.
In the case of MGTL, the enrichment ratio was determined as 6.38.
The same measure for VLLC: ≤ 0.25; for GLIA: ≤ 0.25; for LKCK: ≤ 0.25.
Regarding QDNM, the enrichment ratio is ≤ 0.25.
The value for HSWG was ≤ 0.25.
Turning to SFTT, the enrichment ratio was ≤ 0.25.
The value for RIRI was ≤ 0.25; that for IKSV was ≤ 0.25.
The value for DLYC was ≤ 0.25; that for YDNC was ≤ 0.25.
Take PRVK: the enrichment ratio is ≤ 0.25.
The value for IHER was ≤ 0.25; that for SCAR was 4.56; that for MHCT was ≤ 0.25.
The value for CFIG was ≤ 0.25.
DEVK: the enrichment ratio is ≤ 0.25.
The same measure for FNQW: ≤ 0.25.
The value for MMNF was ≤ 0.25; that for TPFI was ≤ 0.25.
The same measure for RFEA: ≤ 0.25; for WGCH: ≤ 0.25; for PRGI: ≤ 0.25.
Regarding HIVM, the enrichment ratio was ≤ 0.25.
The value for RGDE was ≤ 0.25; that for HWTN was ≤ 0.25.
QEIE: the enrichment ratio is ≤ 0.25.
As for HTDL, the enrichment ratio was ≤ 0.25.
Consider GDTG, for which the enrichment ratio was ≤ 0.25.
The value for KMHY was ≤ 0.25; that for KNQM was ≤ 0.25; that for WWPC was ≤ 0.25.
For the variant FGCW, the enrichment ratio is ≤ 0.25.
The same measure for PWRA: ≤ 0.25.
As to FQQH, the enrichment ratio was ≤ 0.25.
The same measure for MKGW: ≤ 0.25; for QGRY: ≤ 0.25.
RTSY: the enrichment ratio is ≤ 0.25.
With WVIF, the enrichment ratio is ≤ 0.25.
For the variant TYDQ, the enrichment ratio was ≤ 0.25.
With TCPA, the enrichment ratio is ≤ 0.25.
The value for IKHG was ≤ 0.25; that for LDAY was ≤ 0.25.
YIIF: the enrichment ratio is ≤ 0.25.
In the case of PVSA, the enrichment ratio was ≤ 0.25.
Regarding VLDF, the enrichment ratio was ≤ 0.25.
The value for IQRC was ≤ 0.25.
In the case of MDHQ, the enrichment ratio was ≤ 0.25.
The value for HNLW was ≤ 0.25.
The value for MPQN was ≤ 0.25; that for HAKA was ≤ 0.25; that for IASQ was ≤ 0.25.
On to VNVD, for which the enrichment ratio was ≤ 0.25.
Consider GHGS, for which the enrichment ratio is ≤ 0.25.
The same measure for YRMQ: ≤ 0.25; for IKVT: ≤ 0.25.
The same measure for THGG: ≤ 0.25; for WLPF: ≤ 0.25.
For MWVM, the enrichment ratio is ≤ 0.25.
In the case of GMRC, the enrichment ratio is ≤ 0.25.
Turning to DYGW, the enrichment ratio is ≤ 0.25.
The same measure for NIPF: ≤ 0.25.
The value for TREA was ≤ 0.25.
On to FEHY, for which the enrichment ratio is ≤ 0.25.
The same measure for MPYS: ≤ 0.25; for YRTR: ≤ 0.25; for HPFF: ≤ 0.25.
In the case of LGMM, the enrichment ratio amounted to 0.368.
The value for FATI was 0.301; that for TYLM was ≤ 0.25.
For the variant NPLI, the enrichment ratio was ≤ 0.25.
